# The supplement of paper PMC8728848
# The other results are listed elsewhere or left out.
# B1: Cohesin-hDCIR (Homo sapiens) (protein)
# chain: LDDLDAVRIKVDTVNAKPGDTVRIPVRFSGIPSKGIANCDFVYSYDPNVLEIIEIEPGDIIVDPNPDKSFDTAVYPDRKIIVFLFAEDSGTGAYAITKDGVFATIVAKVKEGAPNGLSVIKFVEVGGFANNDLVEQKTQFFDGGANVGDTTEPATPTTPVTTPTTTDDLDAASQKYSQLLEKKTTKELVHTTLECVKKNMPVEETAWSCCPKNWKSFSSNCYFISTESASWQDSEKDCARMEAHLLVINTQEEQDFIFQNLQEESAYFVGLSDPEGQRHWQWVDQTPYNESSTFWHPREPSDPNERCVVLNFRKSPKRWGWNDVNCLGPQRSVCEMMKIHLHHHHHH
# How the values were obtained:
# Assay in all cases: glycan array binding signal (z-score within array); higher = stronger binding
# Conditions in all cases: glycan notation: IUPAC condensed, linker removed
# [1] = biological target: Gal3S6S(b1-4)GlcNAc
# Outline: (§1)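 Arrays were curated from the Consortium for Functional Glycomics database, 3228 in total, and kept only where the protein sequence was available. Binding is expressed as a within-array Z-score. This score was averaged across arrays of the same protein sequence at different concentrations or buffers and across linkers, and negative values can be read as non-binding.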
# [2] = biological target: Gal3S6S(b1-4)GlcNAc6S
# Outline: as §1
# [3] = biological target: Gal4S(b1-4)GlcNAc
# Outline: as §1
# [4] = biological target: Gal4S6S(b1-4)GlcNAc
# Outline: as §1
# [5] = biological target: Gal6P(b1-4)GlcNAc
# Outline: as §1
# [6] = biological target: Gal6S(b1-3)GlcNAc
# Outline: as §1
# [7] = biological target: Gal6S(b1-3)GlcNAc6S
# Outline: as §1
# [8] = biological target: Gal6S(b1-4)Glc
# Outline: as §1
# [9] = biological target: Gal6S(b1-4)Glc6S
# Outline: as §1
# [10] = biological target: Gal6S(b1-4)GlcNAc
# Outline: as §1
# [11] = biological target: Gal6S(b1-4)GlcNAc6S
# Outline: as §1
# [12] = biological target: GalNAc(a1-3)Gal
# Outline: as §1
# [13] = biological target: GalNAc(a1-3)GalNAc
# Outline: as §1
# [14] = biological target: GalNAc(a1-3)GalNAc(b1-3)Gal(a1-4)Gal(b1-4)Glc
# Outline: as §1
# [15] = biological target: GalNAc(a1-3)GalNAc(b1-3)Gal(a1-4)Gal(b1-4)GlcNAc
# Outline: as §1
# [16] = biological target: GalNAc(b1-3)Gal
# Outline: as §1
# [17] = biological target: GalNAc(b1-3)Gal(a1-4)Gal(b1-4)GlcNAc
# Outline: as §1
# [18] = biological target: GalNAc(b1-3)Gal(a1-4)Gal(b1-4)GlcNAc(b1-3)Gal(b1-4)Glc
# Outline: as §1
# [19] = biological target: GalNAc(b1-3)Gal(a1-6)Gal(b1-4)Glc
# Outline: as §1
# [20] = biological target: GalNAc(b1-3)GalNAc
# Outline: as §1
# [21] = biological target: GalNAc(b1-3)GlcNAc
# Outline: as §1
# [22] = biological target: GalNAc(b1-4)Gal(b1-4)Glc
# Outline: as §1
# [23] = biological target: GalNAc(b1-4)GlcNAc
# Outline: as §1
# [24] = biological target: GalNAc(b1-4)GlcNAc(b1-2)Man
# Outline: as §1
# [25] = biological target: GalNAc(b1-4)GlcNAc(b1-2)Man(a1-3)[GalNAc(b1-4)GlcNAc(b1-2)Man(a1-6)]Man(b1-4)GlcNAc(b1-4)GlcNAc
# Outline: as §1
# [26] = biological target: GalNAc(b1-4)GlcNAc(b1-3)GalNAc(b1-4)GlcNAc
# Outline: as §1
# [27] = biological target: GalNAc(b1-4)GlcNAc6S
# Outline: as §1
# [28] = biological target: GalNAc(b1-6)GalNAc
# Outline: as §1
# [29] = biological target: GalNAc3S(b1-4)GlcNAc
# Outline: as §1
# [30] = biological target: GalNAc3S(b1-4)GlcNAc3S
# Outline: as §1
# [31] = biological target: GalNAc3S(b1-4)[Fuc(a1-3)]GlcNAc
# Outline: as §1
# [32] = biological target: GalNAc4S6S(b1-4)GlcNAc
# Outline: as §1
# [33] = biological target: GalNAc6S(b1-4)GlcNAc
# Outline: as §1
# [34] = biological target: Glc(a1-4)Glc
# Outline: as §1
# [35] = biological target: Glc(a1-4)Glc(a1-4)Glc(a1-4)Glc
# Outline: as §1
# [36] = biological target: Glc(a1-6)Glc(a1-6)Glc
# Outline: as §1
# [37] = biological target: Glc(a1-6)Glc(a1-6)Glc(a1-6)Glc
# Outline: as §1
# [38] = biological target: Glc(b1-4)Glc
# Outline: as §1
binder,measurement,setting,value
B1,glycan array binding signal (z-score),[1],0.334
same,glycan array binding signal (z-score),[2],0.229
same,glycan array binding signal (z-score),[3],-0.653
same,glycan array binding signal (z-score),[4],-0.175
same,glycan array binding signal (z-score),[5],-0.376
same,glycan array binding signal (z-score),[6],-0.662
same,glycan array binding signal (z-score),[7],1.68
same,glycan array binding signal (z-score),[8],-0.253
same,glycan array binding signal (z-score),[9],-0.146
same,glycan array binding signal (z-score),[10],-0.57
same,glycan array binding signal (z-score),[11],-0.18
same,glycan array binding signal (z-score),[12],1.17
same,glycan array binding signal (z-score),[13],-0.465
same,glycan array binding signal (z-score),[14],-0.654
same,glycan array binding signal (z-score),[15],-0.219
same,glycan array binding signal (z-score),[16],3.75
same,glycan array binding signal (z-score),[17],2.57
same,glycan array binding signal (z-score),[18],4.3
same,glycan array binding signal (z-score),[19],5.47
same,glycan array binding signal (z-score),[20],-0.319
same,glycan array binding signal (z-score),[21],1.57
same,glycan array binding signal (z-score),[22],-0.229
same,glycan array binding signal (z-score),[23],1.98
same,glycan array binding signal (z-score),[24],2.08
same,glycan array binding signal (z-score),[25],0.532
same,glycan array binding signal (z-score),[26],2.71
same,glycan array binding signal (z-score),[27],0.86
same,glycan array binding signal (z-score),[28],-0.562
same,glycan array binding signal (z-score),[29],-0.389
same,glycan array binding signal (z-score),[30],-0.554
same,glycan array binding signal (z-score),[31],-0.581
same,glycan array binding signal (z-score),[32],-0.659
same,glycan array binding signal (z-score),[33],0.617
same,glycan array binding signal (z-score),[34],-0.166
same,glycan array binding signal (z-score),[35],-0.332
same,glycan array binding signal (z-score),[36],-0.491
same,glycan array binding signal (z-score),[37],-0.038
same,glycan array binding signal (z-score),[38],-0.296
